Assay results published in publication PMC4336329 (PLoS ONE, 2015).
Among all 310,000 compounds or so, about 2,200 (0.71%) showed an effect of 50% or more. Effects have a minus sign here. The list shows a part of the results.

What follows are molecules tested against human ether-à-go-go-related gene (hERG) potassium channel (human, UniProt Q12809) (assay: primary screen, population patch clamp on CHO cells stably expressing hERG).
Chain of human ether-à-go-go-related gene (hERG) potassium channel (Q12809 whole entry, looked up): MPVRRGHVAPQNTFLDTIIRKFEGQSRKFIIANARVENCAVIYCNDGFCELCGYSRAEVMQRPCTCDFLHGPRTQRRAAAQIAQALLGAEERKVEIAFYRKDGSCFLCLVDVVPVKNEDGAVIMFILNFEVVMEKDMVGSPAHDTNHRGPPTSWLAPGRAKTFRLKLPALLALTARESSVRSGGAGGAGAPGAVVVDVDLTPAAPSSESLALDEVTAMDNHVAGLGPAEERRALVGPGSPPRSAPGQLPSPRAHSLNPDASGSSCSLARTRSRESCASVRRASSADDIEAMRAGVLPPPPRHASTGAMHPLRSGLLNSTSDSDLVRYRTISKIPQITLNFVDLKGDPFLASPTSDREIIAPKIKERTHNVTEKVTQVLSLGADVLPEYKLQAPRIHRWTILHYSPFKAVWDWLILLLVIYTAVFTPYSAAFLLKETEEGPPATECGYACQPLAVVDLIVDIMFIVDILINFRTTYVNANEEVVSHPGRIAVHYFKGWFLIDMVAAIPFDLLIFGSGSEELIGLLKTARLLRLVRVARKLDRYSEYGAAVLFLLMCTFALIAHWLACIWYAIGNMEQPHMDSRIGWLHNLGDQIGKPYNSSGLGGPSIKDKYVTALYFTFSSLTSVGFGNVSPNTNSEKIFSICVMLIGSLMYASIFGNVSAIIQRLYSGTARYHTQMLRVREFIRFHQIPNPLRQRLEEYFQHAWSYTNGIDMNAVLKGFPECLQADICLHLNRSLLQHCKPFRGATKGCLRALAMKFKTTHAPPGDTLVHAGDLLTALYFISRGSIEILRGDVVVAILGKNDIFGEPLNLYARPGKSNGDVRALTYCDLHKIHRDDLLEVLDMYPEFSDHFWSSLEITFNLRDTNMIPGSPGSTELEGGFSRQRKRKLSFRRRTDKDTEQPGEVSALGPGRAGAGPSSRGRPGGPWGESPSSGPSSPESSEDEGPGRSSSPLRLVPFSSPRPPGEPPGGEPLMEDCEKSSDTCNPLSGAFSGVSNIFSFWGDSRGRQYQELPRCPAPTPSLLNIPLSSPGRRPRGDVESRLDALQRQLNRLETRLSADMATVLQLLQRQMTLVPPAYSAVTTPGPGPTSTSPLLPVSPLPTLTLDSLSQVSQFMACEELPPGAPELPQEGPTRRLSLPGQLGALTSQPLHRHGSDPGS

| SMILES | hERG current change (%, negative = inhibition) at 1uM |
| --- | --- |
| Cc1ccc(C(=O)NC(=S)NCC2CCCO2)cc1[N+](=O)[O-] (centres unmarked) | 13.6% |
| O=c1[nH]c2ccccc2n1CCCSCCCn1c(=O)[nH]c2ccccc21 | 11.9% |
| Cc1ccc(OCCNc2ccc(C(F)(F)F)cc2[N+](=O)[O-])cc1 | 13.7% |
| CSCCC(NS(=O)(=O)c1ccc(Cl)cc1)C(=O)O (centres unmarked) | 10.4% |
| Cc1ccc2c(c1)N(CC(=O)NC1CCCC1)C(=O)c1cccnc1O2 | 4.29% |
| COc1ccc2oc(C(=O)OCC(=O)NCCN3C(=O)CSC3=O)c(C)c2c1 | 0.741% |
| Cc1ccc(CSc2nnc(-c3ccccn3)n2N)cc1 | 13.4% |
| O=C(COc1ccccc1)Nc1ccc(Cl)cn1 | 3.14% |
| CN1C[C@@H]2C[C@@H](C3=Cc4cc(Cl)ccc4OC3)N3CCC[C@@]23C1=O | -2.11% |
| CCNc1nc(C)nc2c1oc1ccccc12.Cl | -0.858% |
| Cn1cccc1/C=N/NC(=O)CSc1nc2ccccc2n1C | 16.1% |
| CC(OC(=O)c1ccc(Cl)c(S(N)(=O)=O)c1)C(=O)NCc1ccc2c(c1)OCO2 (centres unmarked) | 7.99% |
| CS(=O)(=O)c1ccccc1-c1nc(-c2ccc(C(F)(F)F)cc2)no1 | 14.3% |
| N#C/C(=C\c1ccco1)C(=O)NCc1ccccc1 | 5.93% |
| O=C(Nc1ccc(S(=O)(=O)N2CCCCC2)cc1)C1CCCCC1 | 3.03% |
| Cc1noc(C)c1C(=O)NCc1ccccc1Br | 13.3% |
| CCOC(=O)c1c(C)[nH]c(C(=O)OC)c1CCC(=O)OC | 14.5% |
| O=C(NCCCn1ccnc1)c1ccc(Br)o1 | 10.9% |
| CC[C@H](C)[C@H](NC(=O)c1ccccc1)C(=O)NC(CC(=O)O)c1ccc(F)cc1 (some centres unmarked) | 11.4% |
| CCn1c2ccccc2c2cc(NC(=O)COC(=O)c3ccccc3Br)ccc21 | 11.9% |
| Cc1ccc(CCNC(=O)CN2C(=O)COc3ccc(S(=O)(=O)N4CCOCC4)cc32)cc1 | 0.0514% |
| Nc1c2c(nc3ccccc13)CCC2.O=C(O)/C=C/C(=O)O | -1.77% |

| SMILES | hERG current change (%, negative = inhibition) at 1uM |
| --- | --- |
| FC(F)Sc1nc(-c2ccccc2)c(-c2ccccc2)n1C(F)F | 6.49% |
| CCN1C(=O)N[C@@H](c2ccccc2)C(C(=O)OC)=C1C | 12.2% |
| Cc1ccc(/C=N/NC(=O)CSc2nc3nc(C)cc(C)n3n2)cc1 | 4.52% |
| Cc1ccc(-n2c(COc3c(C)cccc3C)nnc2SCC(=O)Nc2nccs2)cc1 | -6.54% |
| O=C(O)c1cc(S(=O)(=O)NCC2CCCO2)ccc1Cl (centres unmarked) | -3.7% |
| Cn1nnnc1SCC(=O)c1ccco1 | 13.3% |
| Cc1nn(CC(=O)Nc2ccc(Br)cc2F)c(=O)c2cccn12 | -5.25% |
| Cc1cccc(OCCN2C(=O)C(=O)c3cccc(C)c32)c1 | 15.2% |
| CCOC(=O)c1cn(-c2ccccc2CO)c2c(F)c(F)c(F)cc2c1=O | 12.2% |
| CCCCCC(=O)NCC(C)NC(=O)CCCCC (centres unmarked) | 8.44% |
| COc1ccc(NC(=O)Cc2ccc(C)cc2)c([N+](=O)[O-])c1 | 3.81% |
| CC(=O)c1ccc(NC(=O)/C(=C\c2cccs2)NC(=O)c2ccco2)cc1 | 16.8% |
| COC(=O)C(NNc1ccccc1)(NC(=O)c1ccccc1F)C(F)(F)F (centres unmarked) | 6.01% |
| Nc1cc(=O)nc(SCC(=O)Nc2ccccc2Cl)n1-c1ccccc1 | 10.8% |
| COc1ccc(Cl)cc1N(CC(=O)N/N=C/c1ccc(OCC(N)=O)cc1)S(C)(=O)=O | 8.49% |
| CCCn1c(C2CCCN2c2nc(-c3ccc(C)cc3)cs2)nc2ccccc21 (centres unmarked) | 8.33% |
| Cc1cccc(Nc2nc(N)c([N+](=O)[O-])c(N3CCCC(C)C3)n2)c1 (centres unmarked) | 10.2% |
| FC(F)(F)c1ccccc1Nc1nccs1 | 7.41% |
| Cc1ccc(/C=C/c2nc3ccccc3c(=O)[nH]2)cc1 | 10.4% |
| FC(F)(F)c1cccc(-n2cc(-c3ccccc3)[nH]c2=S)c1 | 12% |
| Cc1ccc(NC(=O)OCCNC(=O)c2ccncc2)cc1 | 11.4% |
| COc1c[nH]n(-c2ccccc2)c(=O)c1=O | 11.8% |

| SMILES | hERG current change (%, negative = inhibition) at 1uM |
| --- | --- |
| Cc1nn(Cc2ccccc2)c(C)c1NC(=O)CSc1nc2sc3c(c2c(=O)n1C)CCC3 | 8.38% |
| CCn1c(SCc2cc(=O)[nH]c3ccccc23)nc2c1c(=O)n(C)c(=O)n2C | -4.73% |
| C=CCNc1nc(-c2ccccc2)c(C(=O)OCC)cc1C#N | 6.21% |
| COc1ccc(C(=O)NCC(=O)N2CCN(c3ccc(F)cc3)CC2)cc1 | 15.8% |
| CCOC(=O)C(C)Sc1nc2c(c(=O)[nH]c(=O)n2C)n1CCc1ccccc1 (centres unmarked) | -5.6% |
| O=C(CN1C(=O)NC2(CCCC2)C1=O)Nc1ccccc1-c1ccccc1 | 4.55% |
| Cc1c(NC(=O)c2cc(-c3ccc(Br)cc3)on2)c(=O)n(-c2ccccc2)n1C | 13.5% |
| COc1cc(OC)c(NC(=O)CCc2ccccc2)cc1Cl | 13.4% |
| O=C(O)CCc1c(C(=O)O)[nH]c2ccccc12 | 7.56% |
| O=C(NCCc1c[nH]c2ccccc12)c1cccc(S(=O)(=O)Nc2ccccc2Cl)c1 | 19.1% |
| Cc1cc(C)n(C(=O)CSc2ccc(Cl)cc2)n1 | 5.57% |
| CCC(Br)C(=O)Nc1ccc(OC)cc1 (centres unmarked) | 13.6% |
| O=C(Cc1ccccn1)c1ccccc1 | 23.3% |
| COCCCNC(=O)Cn1nc(-c2cccc(OC)c2)ccc1=O | 15.8% |
| Cc1nn(CCC(=O)NNC(=S)NCC(C)C)c(C)c1Br | 7.17% |
| O=C(O)CCN1C(=O)/C(=C2\C(=O)N(Cc3ccccc3Cl)c3ccccc32)SC1=S | 14.4% |
| CCn1c(Cc2ccccc2)nnc1SCC(=O)Nc1nc2ccccc2s1 | 1.04% |
| Cn1c(Sc2ccc([N+](=O)[O-])cc2C(F)(F)F)nnc1-c1ccccc1 | -7.61% |
| COc1ccccc1N1CCN(S(=O)(=O)c2ccc3c(c2)NC(=O)C(C)S3)CC1 (centres unmarked) | 12.2% |
| C#CCOCCOCCOCCNc1nc(N2CCOCC2)nc(N2CCN(C(=O)[C@H](CCCCN)n3cc([C@@H](N)CO)nn3)CC2)n1.Cl | 7.38% |
| Cc1onc(-c2ccccc2)c1C(=O)OCC(=O)Nc1ccc(OC(F)(F)F)cc1 | 8.73% |
| Cc1csc(NC(=O)c2ccc(Br)s2)n1 | 11.1% |

| SMILES | hERG current change (%, negative = inhibition) at 1uM |
| --- | --- |
| Cc1ccccc1-c1nnc(SCC(=O)Nc2ccc3c(c2)OCCO3)n1N | 4.62% |
| COCCn1c(SCC(=O)Nc2ccc(Cl)c(S(=O)(=O)N(C)C)c2)nc2ccccc21 | 5.28% |
| CC[C@@]12C(=O)N(c3cccc(F)c3)C(=O)N1[C@H](c1ccc(OC)cc1)[C@@H]1C(=O)N(C(C)(C)C)C(=O)[C@@H]12 | 7.07% |
| Cc1ccc2c(c1)C1CN(C)CCC1N2C(=O)c1ccccc1NS(=O)(=O)c1ccc(F)cc1 (centres unmarked) | 11.8% |
| CN(Cc1ccccc1)C(=S)NC(=O)C1CCCCC1 | 13.5% |
| O=C(COC(=O)C1CCN(S(=O)(=O)c2cc([N+](=O)[O-])ccc2Cl)CC1)Nc1ncc(Cl)cc1Cl | -6.05% |
| OCCC1CN(Cc2cn[nH]c2C2CCCCC2)CCN1C1CCCC1 (centres unmarked) | 6.76% |
| COc1ccc(-c2cc(C(F)F)n3ncc(C(=O)Nc4cnn(Cc5ccccc5)c4)c3n2)cc1 | 10% |
| COc1ccc(C)cc1-n1c(SCC(=O)Nc2cc(C)on2)nc2ccccc2c1=O | 12% |
| O=C(c1cc2nc(C3CC3)cc(C(F)(F)F)n2n1)N1CCCC1 | 6.6% |
| CCN(CC(=O)Nc1c(F)cccc1F)C(=O)CN1C(=O)c2ccccc2C1=O | 8.45% |
| COc1ccccc1C1C=C(c2ccccc2)Nc2nnnn21 (centres unmarked) | 10.5% |
| O=C(CN(Cc1ccccc1)C(=O)CCC(=O)Nc1ccccn1)NCc1ccc(F)cc1 | 14.9% |
| CC(C)[C@H](NC(=O)OCc1ccccc1)C(=O)OCC(=O)N1CCN(c2ccc(F)cc2)CC1 | -10.1% |
| COc1ccc(-c2ncc(CN3CCN(CCC(C)C)C(CCO)C3)cn2)cc1 (centres unmarked) | -10.2% |
| COc1ccc(CCOC(=O)c2ccc(N)c([N+](=O)[O-])c2)cc1 | 20.6% |
| C[C@H](CO)NC(=O)[C@H](C)[C@H]1C[C@]1(C)[C@H](NC(=O)OCc1ccccc1)c1ccccc1 | 4.64% |
| C#CCOCCOCCOCCNc1nc(N2CCN(C(=O)CCCCCCCCCCNC(=O)[C@H]([C@@H](C)CC)n3cc(CCCCN=C(N)N)nn3)CC2)nc(N2CCN(C(=O)CCCCCCCCCCNC(=O)[C@H](CO)n3cc(CCCSC)nn3)CC2)n1 | 15.9% |
| O=C(Nc1ccc(CSc2ccccc2)cc1)c1ccccc1 | 14.2% |
| COC(=O)C1=C(C)NC(=O)NC1C1CC=CCC1 (centres unmarked) | 10.7% |
